The record followed here is ChEMBL document CHEMBL4888484, “Replenishing the malaria drug discovery pipeline: Screening and hit evaluation of the MMV Hit Generation Library 1 (HGL1) against asexual blood stage Plasmodium falciparum ,using a nano luciferase reporter read-out” (2022).

About 540 (0.36%) of roughly 150,000 compounds showed an effect of 50% or more. This is one part of the list.

This experiment relates to Plasmodium falciparum. Description: Primary screen in NF54 nanoGlo assay, in single point, at 2uM, 72h; a lower Z score goes with more inhibition. It is filed as functional, Erythrocyte. The conditions noted are these: timepoint 72 hour.
With `Cc1cc(C(=O)N[C@H]2CC[C@H](Oc3ncccn3)CC2)no1`, the “% Inhibition” value was -7% and the Z score was determined as 1.23.

Turning to `CN(CC(=O)NC1CCS(=O)(=O)C1)C1CCCc2ccc(F)cc21` (centres undefined), the “% Inhibition” value is on record as -14% and the Z score came to 1.88.

On to `O=C1[C@@H]2CCCN2C(=O)N1Cc1ccn(-c2ccc(F)cc2F)n1`, for which the “% Inhibition” value is given as -15% and the Z score is 1.54.

In the case of `O=C(O)c1cccnc1CN1CCc2ccc(C(F)(F)F)cc2C1`, the “% Inhibition” value was -1% and the Z score was 0.1.

Take `CN(CC(=O)NC1CCCCC1)C1CCCCC1`: the “% Inhibition” value was -12% and the Z score is 1.65.

For the compound `O=C(Nc1cnccn1)C1CC2CCC1O2` (centres undefined), the “% Inhibition” value is given as -3% and the Z score is on record as 0.24.

Regarding `CC(C)(C)c1ccc(OS(=O)(=O)c2c[nH]c(C(=O)N3CCCC3)c2)cc1`, the “% Inhibition” value was -13% and the Z score was 1.68.

As to `Cc1nc(CCc2cn[nH]c2)n(-c2ccc(F)c(F)c2)n1`, the “% Inhibition” value turned out to be 1% and the Z score is -0.18.

As for `Cn1cccc1CNc1nnc(CC2CCCC2)o1`, the “% Inhibition” value is -9% and the Z score amounted to 1.3.

In the case of `Cc1nnc(CN[C@@H](C)c2ccc(Cl)s2)s1`, the “% Inhibition” value was -13% and the Z score is reported as 1.31.

Regarding `CC[C@@]1(O)COC2(CN(C(=O)c3noc(C)c3Cn3cccn3)C2)C1`, the “% Inhibition” value is -11% and the Z score is reported as 1.67.

Turning to `CN(C[C@H]1CCCOC1)C(=O)Nc1nsc2ccccc12`, the “% Inhibition” value is reported as -10% and the Z score stood at 1.43.

Regarding `Cc1n[nH]c(C)c1[C@H](C)N(C)Cc1cn(C)nc1-c1ccc2c(c1)OCCO2`, the “% Inhibition” value was -2% and the Z score came out at 0.35.

Regarding `CCn1ccnc1NC(=O)C1CC(F)(F)C1`, the “% Inhibition” value is listed as -3% and the Z score stood at 0.36.

As to `C[C@@H](c1ccco1)N(C)C(=O)NCCc1csc(N2CCCC2)n1`, the “% Inhibition” value is on record as -6% and the Z score worked out at 0.59.

In the case of `CC(C)c1nnc(CNC2(c3noc(C4CC4)n3)CCCC2)o1`, the “% Inhibition” value is given as -3% and the Z score was 0.33.

Turning to `O=C(c1cc(C2CC2)on1)N1CCc2ccccc2C1`, the “% Inhibition” value is reported as -6% and the Z score is 0.68.

`Cc1cnc(NC(=O)c2c(C)c(C)n[nH]c2=O)s1`: the “% Inhibition” value is recorded as 2% and the Z score is -0.35.

For `Cc1ccc(C(F)(F)C(=O)NCCC(=O)NS(C)(=O)=O)cc1`, the “% Inhibition” value turned out to be 57% and the Z score is recorded as -7.27.

Turning to `COCc1nc(CN(C)CCc2scnc2C)no1`, the “% Inhibition” value is given as -2% and the Z score stood at 0.25.

As for `Fc1ccccc1N1CCC(N2CCO[C@H](C(F)(F)F)C2)CC1`, the “% Inhibition” value stood at 15% and the Z score is recorded as -2.02.

Consider `O=C(NCc1ccccc1CN1CCC[C@@H]1CO)c1ccc(F)c2ccncc12`, for which the “% Inhibition” value is on record as -1% and the Z score is given as 0.14.

In the case of `CCCc1cc([C@@H]2CCCN2Cc2ccc(F)c(Br)c2)no1`, the “% Inhibition” value is on record as -7% and the Z score amounted to 0.95.

Regarding `N#Cc1cncc(N2CC3CCC2C2CN(Cc4ccccc4)CC32)n1` (centres undefined), the “% Inhibition” value is -7% and the Z score was 1.41.

In the case of `CCn1cnnc1CNC(=O)c1ccncc1`, the “% Inhibition” value was -5% and the Z score stood at 1.

On to `COc1cc(C(=O)Nc2ccc(C)c(N3CCCCC3=O)c2)cc(OC)c1OC`, for which the “% Inhibition” value is on record as -4% and the Z score was determined as 0.66.

In the case of `C[C@@H](C(=O)Nc1cnn(C)c1C(F)F)c1cccc(O)c1`, the “% Inhibition” value was -8% and the Z score is given as 1.53.

Turning to `CC(C)C1(NC(=O)CNC(=O)c2cscn2)CC1`, the “% Inhibition” value is recorded as -4% and the Z score came to 0.53.

For the compound `CN(CCC#N)C(=O)c1cnn(C(C)(C)C)c1`, the “% Inhibition” value was -11% and the Z score stood at 1.58.

Consider `CCN(CC(=O)Nc1ccc(NC(C)=O)cc1)C(=O)N(c1ccccc1)c1ccccc1`, for which the “% Inhibition” value is 0% and the Z score was -0.08.

As to `CN(C(=O)Nc1ccc(-n2cnnn2)cc1)[C@@H]1CCN(Cc2ccccc2)C1`, the “% Inhibition” value was -7% and the Z score amounted to 0.87.

Regarding `CC(C)(C)c1csc(CN2CCC[C@H]2C(=O)O)n1`, the “% Inhibition” value was -5% and the Z score came to 0.77.

For `NC(=NCCOc1ncc(Cl)cc1Cl)N1CCCCC1`, the “% Inhibition” value is -3% and the Z score is listed as 0.47.

For `COCCOCCN(Cc1ccccc1)C(=O)c1cnc(-c2ccccc2Cl)s1`, the “% Inhibition” value is -12% and the Z score is recorded as 1.87.

On to `OCC(Cc1ccccc1)NCCNC(CO)Cc1ccccc1` (centres undefined), for which the “% Inhibition” value is 1% and the Z score is -0.21.

On to `CC(=O)NCCn1ccnc1-c1ccccc1OCc1ccccc1`, for which the “% Inhibition” value was -17% and the Z score is 2.45.

With `CN(CC1CCCC1O)C(=O)NCCC1CCCO1` (centres undefined), the “% Inhibition” value is recorded as -10% and the Z score stood at 1.1.

Consider `COc1cccc(CNC(=O)C(C)(C)S(C)(=O)=O)c1`, for which the “% Inhibition” value is on record as -3% and the Z score was 0.55.

As to `COc1ncc(CN(CCN(C)C)C2CCCCC2)cn1`, the “% Inhibition” value worked out at 10% and the Z score is given as -1.37.

For the compound `Fc1cccc(Cl)c1Cn1ncnc1Cc1cscn1`, the “% Inhibition” value is on record as -5% and the Z score was found to be 0.98.

Take `CCO[C@H]1COC[C@@H]1NC(=O)c1nc2c(s1)CCCC2`: the “% Inhibition” value is recorded as -2% and the Z score came out at 0.36.

As for `Fc1ccc2oc(N3CCC[C@@]4(CCOC4)C3)nc2c1`, the “% Inhibition” value is given as -12% and the Z score was determined as 1.89.

In the case of `Cc1cc(N(C)C[C@H](O)COc2ccc3c(c2)OCO3)nc(N)n1`, the “% Inhibition” value worked out at 5% and the Z score was -0.55.

With `C[C@](O)(C1CCN(C(=O)c2ccc(-n3ccnn3)cc2)CC1)C(F)(F)F`, the “% Inhibition” value is -2% and the Z score amounted to 0.27.

Consider `Nc1nc(N2CCC3(CC2)N=C(c2ccccc2)NC3=O)c2cn[nH]c2n1`, for which the “% Inhibition” value was -3% and the Z score is on record as 0.5.

Consider `COc1ccc(-c2cn(-c3ccc(OC)cc3)c(=O)n2-c2ccccc2)cc1`, for which the “% Inhibition” value was -14% and the Z score is 1.61.

On to `COCC1CCN(C(=O)N[C@H](c2nccn2C)C2CC2)CC1`, for which the “% Inhibition” value is reported as -15% and the Z score was determined as 1.69.

For the compound `CCN(CC)[C@@]1(c2nnnn2C2CCCC2)CCN(C(=O)c2ccncc2)C1`, the “% Inhibition” value is reported as -3% and the Z score was 0.43.

For the compound `CCOCCC1(CNC(=O)Nc2ccn(C)n2)CCCC1`, the “% Inhibition” value was 2% and the Z score is -0.18.

As to `CC(C)(C)n1ncc2c(=O)[nH]c(NCCc3ccoc3)nc21`, the “% Inhibition” value is -12% and the Z score is given as 2.34.

With `C[C@H](NC(=O)Nc1cccc(C(=O)N2CCN(C)CC2)c1)c1ccc(F)cc1`, the “% Inhibition” value worked out at 12% and the Z score is -2.32.

On to `CC1CCCN(C(=O)C2CCC2)C1CN` (centres undefined), for which the “% Inhibition” value was -3% and the Z score was 0.43.

For the compound `O=C(NCC(=O)OC1CCCCC1)Nc1ccccc1C(F)(F)F`, the “% Inhibition” value is listed as -2% and the Z score amounted to 0.17.

In the case of `C=C(C)[C@H]1OCC[C@H]1C(=O)NCC1CC(O)CN1Cc1ccccc1` (some centres undefined), the “% Inhibition” value is -11% and the Z score is given as 0.95.

With `CCc1nc(CNC(=O)CCc2c[nH]c3cccc(C)c23)n[nH]1`, the “% Inhibition” value is on record as -7% and the Z score was 1.28.

For the compound `O=S(=O)(Cc1ccccc1)NC[C@H]1CCN(Cc2ccco2)C1`, the “% Inhibition” value is recorded as 1% and the Z score was -0.13.

For `CN1CCc2[nH]nc(C(=O)N3CCC(c4ccncn4)CC3)c2C1`, the “% Inhibition” value stood at 6% and the Z score is listed as -1.05.

As usually defined, the % Inhibition is the change of the read-out against control, counted positive when it falls.
